This is one part of the list.
Each compound was assayed on HepG2 (assay: cytotoxicity call (relative viability < 0.9)). Settings: 10 µM.
With `N#CCc1ccc(Cl)cc1F` the cytotoxicity call was “inactive”. For `C[C@@H]1CN([C@@H](C)CO)C(=O)c2cc(NC(=O)NC3CCCCC3)ccc2O[C@@H]1CN(C)S(C)(=O)=O`, the cytotoxicity call was “inactive”. For `Cc1ccc(S(=O)(=O)NCC[C@@H]2CC[C@H](NS(=O)(=O)c3ccccc3Cl)[C@H](CO)O2)cc1`, the cytotoxicity call was “inactive”. `C[C@H](CO)N1C[C@H](C)[C@H](CN(C)S(=O)(=O)c2ccccc2)Oc2ncc(-c3ccncc3)cc2C1=O` was tested, and the cytotoxicity call was “inactive”. For `OCCNC(=S)NC1CCCC1`, the cytotoxicity call was “inactive”. For `COc1ccc(CN(C)C[C@H]2OCCCC[C@@H](C)Oc3ccc(NC(=O)Nc4c(C)noc4C)cc3C(=O)N([C@H](C)CO)C[C@H]2C)cc1`, the cytotoxicity call was “inactive”. `C[C@@H]1CN([C@@H](C)CO)C(=O)c2cccc(NC(=O)CCCCCC(=O)Nc3ccccc3N)c2O[C@H]1CN(C)S(C)(=O)=O` was tested, and the cytotoxicity call was “inactive”. In the case of `CC(C)(C)[S@](=O)N1Cc2cc(C(=O)NCCc3ccncc3)nc(-c3cccc(-c4ccccc4)c3)c2[C@@H]1CCO`, the cytotoxicity call is reported as “inactive”. For `C[C@@H]1CN([C@H](C)CO)C(=O)c2cc(/C=C/c3ccccc3)cnc2O[C@H]1CN(C)S(=O)(=O)c1cn(C)cn1`, the cytotoxicity call was “inactive”. For `C[C@@H]1CCCCO[C@@H](CN(C)C(=O)Nc2cccc3ccccc23)[C@@H](C)CN([C@@H](C)CO)C(=O)c2cc(NC(=O)Nc3cccc4ccccc34)ccc2O1`, the cytotoxicity call was “inactive”. For `O=S1(=O)[C@@H]2C[C@H]3C=C[C@]2(CN1C1CC1)O3`, the cytotoxicity call was “inactive”. With `Cc1noc(C)c1NC(=O)Nc1ccc2c(c1)CC(=O)N([C@@H](C)CO)C[C@@H](C)[C@H](CN(C)Cc1ccc(C(=O)Nc3ccccc3N)cc1)O2` the cytotoxicity call was “inactive”.
